# At least one read-out could not be matched to a standard name with certainty.
# System: thoracic aorta (albino rabbit, helical strips, endothelium removed)
# Experiment: In vitro screening of NO donors: relaxation of endothelium-denuded rabbit thoracic aorta strips, before and after GTN-induced tolerance
# Type: cell-based
# Settings: relative to GTN; for Mean Activity Ratio After Tolerance: after tolerance induced by 440 μM GTN for 90 min
# Procedure: a) In vitro Screening of NO Donors
# The method adopted was a modified method of Nishikawa et al (1982). Albino rabbits of either sex were stunned and exsanguinated. Thoracic aorta was quickly removed and cut helically (at an angle of […]) into strips 4-5 mm wide and 25 to 30 mm long, after removal of adventitial connective tissue. The endothelium was rubbed off gently using a cotton swab soaked in Kreb's solution. Two strips were fixed vertically in organ baths containing 20 ml. Kreb's solution maintained at 37° C. and bubbled with oxygen. A resting tension of 4 g was applied and the preparation was allowed to equilibrate for 30 min. Each preparation was exposed to two primer doses of KCl (30 mM). After the contraction reached a maximum, the bath was drained off and replaced with fresh Kreb's solution. Half an hour later, cumulative dose response curve for the test compound was taken on one tissue (test) and for glyceryl trinitrate (GTN) in the other (standard). The dose range used was from 10^-9 M to 10^-3 M with a contact period of 4 min. for each dose.
# Tolerance was induced in both the tissues by adding 440 μM of GTN for 90 minutes. During this period the bath solution was changed every 30 min. and 440 μM of GTN was replaced. Later both the tissues were washed thoroughly and the dose response curve (DRC) for both the test and the standard were repeated. The percentage relaxation with individual doses was calculated by taking the maximum relaxations to 10^-4 M papaverine as 100% relaxation. A graph was plotted by taking the percentage relaxation vs the log (M) concentration of the compounds.
Compound,Mean Activity Ratio After Tolerance,Mean Activity Ratio Before Tolerance
"CCOCCOC(=O)c1ccc2c(c1)no[n+]2[O-] [Compound 8, 5(6)-(2-ethoxyethyloxycarbonyl) benzofuroxan]",1.97,1.04
"O=C(NCCOC(=O)c1ccc2c(c1)no[n+]2[O-])c1ccncc1 [Compound 2, 5(6)-(2-isonicotinamideethyloxycarbonyl)benzofuroxan]",2.38,1.19
"O=C(OCC(O)CO)c1ccc2c(c1)no[n+]2[O-] (centres unmarked) [Compound 7, 5(6)-(2,3-dihydroxypropyloxycarbonyl) benzofuroxan]",1.58,1.16
"COCCOC(=O)c1ccc2c(c1)no[n+]2[O-] [Compound 6, 5(6)-(2-methyloxyethyloxycarbonyl) benzofuroxan]",2.32,1.74
"O=C(OCCN1CCCC1=O)c1ccc2c(c1)no[n+]2[O-] [Compound 3, 5(6)-(2-pyrolidinone ethyloxycarbonyl) benzofuroxan]",1.83,1.15
"CC1(C)OCC(COC(=O)c2ccc3c(c2)no[n+]3[O-])O1 (racemic) [Compound 10, 5(6)-((±)-2,2-dimethyl-1,3-dioxolane-4-methyloxycarbonyl) benzofuroxan]",1.57,1.05
"CC(O)COC(=O)c1ccc2c(c1)no[n+]2[O-] (centres unmarked) [Compound 4, 5(6)-(2-hydroxypropyloxycarbonyl) benzofuroxan]",1.69,1.13

# Reference: US6248895A, “Benzofuroxan compound, method of preparation, pharmaceutical composition and method of treatment using the same” (Torrent Pharmaceuticals Ltd., priority 1998, dated 2001)
